Reference: the supplement of paper PMC12217912
Some of the results follow. The full chains were built here from the parent and the listed change. Inactive controls read about 0.05.

B1: TEV protease; numbered along this chain (parent)
chain: MGESLFKGPRDYNPISSSICHLTNESDGHTTSLYGIGFGPFIITNKHLFRRNNGTLVVQSLHGVFKVKDTTTLQQHLVDGRDMIIIRMPKDFPPFPQKLKFREPQREERICLVTTNFQTKSMSSMVSDTSCTFPSGDGIFWKHWIQTKDGQCGSPLVSTRDGFIVGIHSASNFTNTNNYFTSVPKNFMELLTNQEAQQWVSGWRLNADSVLWGGHKVFMVKPEEPFQPVKEATQL

Variants of: B1
Test: raw area under fraction-flipped curve 0-4 h after induction (AUC4h, not background-subtracted), DNA-recorder readout of cleavage of the substrate (dimensionless); higher = more cleavage of the substrate by the protease variant
Details: temperature: 34 °C; time window: 0-4 h after rhamnose induction
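Further: Bxb1 expression induced with 0.2% (w/v) L-rhamnose at OD600 near 0.5, cultures sampled hourly, flipped fraction per protease–substrate barcode pair counted by paired-end Illumina sequencing.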

Variant	area with substrate ENLYDQS	area with substrate ENLYEQS	area with substrate ENLYGQS	area with substrate ENLYHQS	area with substrate ENLYIQS	area with substrate ENLYKQS	area with substrate ENLYMQS	area with substrate ENLYNQS	area with substrate ENLYPQS	area with substrate ENLYQQS	area with substrate ENLYRQS	area with substrate ENLYTQS	area with substrate ENLYWQS	area with substrate ENLYYQS	area with substrate ENLYSQS	area with substrate ENLYVQS	area with substrate ENLYLQS
F65E	0.0508	0.0582	0.0704	0.0612	0.0612	0.0612	0.0873	0.0601	0.0487	0.0718	0.0682	0.0722	0.0784	0.0586	–	–	–
F140P	0.0582	0.0543	0.0548	0.0061	0.091	0.047	–	0.0522	0.0606	–	0.0464	–	0.0453	0.069	0.055	0.0615	–
F140I	0.0571	0.0596	0.0739	0.0473	0.0803	0.0331	0.0569	0.0593	0.0636	0.0707	0.0588	0.056	0.0543	–	0.0588	0.115	–
G202V	0.0298	0.0878	0.0596	0.0532	0.0661	0.039	–	0.054	0.0463	0.0513	0.0456	0.0404	0.0496	0.0567	0.0508	0.0648	–
K90F	0.0581	0.0666	–	0.0728	0.132	–	–	0.0589	–	–	0.0587	–	–	–	–	–	–
L73G	0.0312	0.0561	0.05	0.04	0.0562	0.0515	0.047	0.0463	0.0489	0.0291	0.0415	0.0428	–	–	–	0.0532	0.0499
G166T	0.0503	0.0522	0.0352	0.0534	–	0.0557	0.045	0.0728	0.0497	0.0614	0.0552	0.0403	0.0515	0.0611	0.0421	0.0575	0.0556
G166Q	0.044	0.0505	0.0501	0.051	0.0529	0.0509	0.0519	0.0645	–	0.0482	0.0519	–	0.0542	0.0479	–	–	–
L99C	0.0637	0.0709	–	–	0.102	0.0636	0.0907	0.0695	0.0702	–	0.0611	0.0758	–	–	0.0594	0.0753	–
L99S	0.031	0.0681	–	0.069	–	0.0665	–	0.0529	0.0723	–	0.047	0.0619	–	0.0608	0.0784	–	–
R204N	0.0947	0.0642	0.0643	0.0753	0.115	0.0626	0.0945	0.0642	–	0.0593	0.065	0.0822	0.0777	–	0.0377	0.115	–
E108P	0.0552	0.0584	0.0541	0.0404	0.0613	0.0579	–	0.0465	–	–	–	0.0545	0.0507	–	0.0533	–	–
E108Y	0.0574	0.0517	–	0.0587	0.0629	0.0552	0.0549	0.055	–	0.0703	0.0548	0.0372	0.0551	–	0.0483	0.0737	–
R81I	0.0442	0.0475	0.0574	0.0647	–	0.0369	0.0991	0.058	0.0716	0.0612	–	–	–	–	0.0424	0.0609	–
N193P	0.0597	0.0701	–	0.0788	–	0.0628	0.0642	–	0.0439	0.0724	0.0573	0.0591	–	0.051	0.0696	–	–
P134L	0.0489	0.0646	–	0.0657	0.0945	–	0.066	–	0.0572	–	–	0.0651	0.0653	0.0653	–	–	–
P134E	0.0923	0.0597	0.0578	0.0647	0.115	0.0609	0.0896	0.05	0.0832	0.0743	0.0567	0.0659	0.0759	–	0.0757	0.113	–
E103K	0.0646	0.0617	0.066	0.0455	–	–	0.0828	–	0.0702	–	0.0732	–	–	0.0498	0.0729	0.127	–
G80H	0.0651	0.0593	0.0712	–	0.117	0.022	–	0.0705	0.068	0.0651	0.0409	0.0514	0.0816	–	–	0.119	–
D79G	0.0612	0.0705	0.0649	–	–	0.0644	0.0731	0.0787	0.0682	0.0552	0.053	0.06	0.0748	0.0558	0.0712	0.0939	–
T114M	0.0759	0.08	0.0548	0.0604	0.118	0.0483	–	0.0568	0.07	0.08	–	–	0.0783	–	0.0792	0.103	–
K148T	0.0564	0.0652	0.0681	0.0638	0.0986	0.0494	0.0703	0.067	0.0605	0.0606	0.067	–	0.0663	–	–	0.0887	0.0766
G136P	0.0616	0.0612	–	0.0646	0.0703	–	0.0689	0.0629	–	0.0515	0.0521	–	–	0.0713	0.0636	0.0753	–
I85F	0.0701	0.0513	–	0.0525	–	0.0585	–	–	–	0.057	–	0.06	0.0778	–	–	0.107	–
N177V	0.0618	0.0682	0.0739	0.0797	0.147	–	0.133	0.076	0.0898	0.0675	0.0603	–	–	–	0.0936	0.131	–
S121Y	0.0623	0.0718	0.069	0.0788	0.101	0.0495	0.0781	–	–	0.0509	–	–	0.0753	–	–	0.125	0.0822
T132G	0.0446	0.0679	0.0528	0.051	0.0854	0.0603	0.0847	0.0636	0.0622	–	0.0731	–	–	0.0646	0.0596	–	–
T132S	0.0647	–	0.0415	–	–	–	–	0.0637	0.0744	–	–	–	–	–	–	–	0.0692
D69Q	0.0621	0.0641	0.0708	0.057	0.0869	0.0645	0.0828	0.0637	0.0694	–	0.0683	–	0.0786	0.0611	–	0.0928	–
